Tested on: BALB/c mice
Assay: Mouse serum cytokines/chemokines after IV, SubQ or IM injection
Format: in vivo
Settings: summary statement

CCCCCCCCCCCCCC[C@@H](O)[C@@H](O)[C@H](CO[C@H]1O[C@H](CO)[C@H](O)[C@H](O)[C@H]1O)NC(=O)CCCCCCCCCCc1ccc(-c2ccc(F)cc2)cc1 [C30]
TH1- or TH2-biased response (as shown in the results above): TH1-biased response
